Source: PubChem BioAssay AID902 (National Center for Advancing Translational Sciences (NCATS), 2007)
Out of some 130,000 compounds screened, about 1,900 (1.5%) were called active. The inconclusive results got no clear call from the source; some entries with a clear call stand among them for comparison. Calls come from the whole dose curve; as a rule, active = well fitted cell-killing curve with a large enough effect; inconclusive = small, poorly fitted or top-dose-only effect; inactive = no such curve, though single readings can be large or run the other way. A potency beside an inconclusive call is a rough fit, not a confirmed value.
% is set by controls: 0 for no effect and ±100 for the full control effect; potency is the fitted concentration of half-maximal effect; tags give direction and shape of the fitted curve.

Experiment: qHTS Screen for Compounds that Selectively Target Cancer Cells with p53 Mutations: Cytotoxicity of p53ts Cells at the Nonpermissive Temperature; note: nearly all actives have a fitted effect of over 55% in size
Conditions: H1299-p53A138V viability at 39C, ATP luminescence, 24 h; activity change, negative = cell killing: at 46.1 µM (top of the series)
With `COc1cccc(NC(=O)C(=O)NCC(c2ccc3c(c2)OCO3)N2CCOCC2)c1` (centres undefined) the Potency was inconclusive: 31.6 µM [cytotoxic, partial curve]. For `COc1ccc(-c2cc(C(F)(F)F)nc(NCc3ccccc3)n2)cc1`, the Potency was inconclusive: 1.58 µM [cytotoxic, partial curve]. With `CCCC(=O)Nc1cnc(NC(=O)c2cccc(F)c2)cc1C` the Potency was inconclusive: 15.8 µM [cytotoxic, partial curve]. In the case of `Cc1ccc2cccc(S(=O)(=O)Nc3ccc4c(c3)OCO4)c2n1`, the Potency is reported as inconclusive: 31.6 µM [cytotoxic, single point]. With `COc1ccc(CN(C(=O)CSc2nnc(-c3c[nH]c4ccccc34)o2)c2ccc(F)cc2)cc1OC` the Potency was inconclusive: 35.5 µM [cytotoxic, single point]. With `CC(C)=CC1C(C(=O)Nc2ccc(Br)cn2)C1(C)C` (centres undefined) the Potency was “inactive”. For `Cn1c(-c2nc(-c3ccccc3)cs2)nc2ccccc21`, the Potency was inconclusive: 7.94 µM [cytotoxic, partial curve]. In the case of `CCOC(=O)C1CCCN(C(=O)c2cc(-c3ccc(C)cc3)on2)C1` (centres undefined), the Potency is reported as inconclusive: 12.6 µM [cytotoxic, single point]. For `CC(C)CNC(=O)NC1C(NC(=O)NCC(C)C)N(C)C(=O)N1C` (centres undefined), the Potency was active: 6.31 µM. For `O=C(O)[C@@H]1CCCN[C@H]1C(=O)O`, the Potency was “inactive”. For `O=[N+]([O-])c1ccc(NC(=S)NCCc2ccc(F)cc2)cc1`, the Potency was inconclusive: 35.5 µM [cytotoxic, single point]. For `COc1cccc(CNC(=O)c2cccc(NC(=O)c3nsc4ccccc34)c2)c1`, the Potency was inconclusive: 31.6 µM [cytotoxic, partial curve, poor fit]. In the case of `CN1CCc2cc(NC(=O)Nc3cccnc3)ccc21`, the Potency is reported as inconclusive: 12.6 µM [cytotoxic, partial curve]. In the case of `COc1ccc(NS(=O)(=O)c2ccc3c(c2)n(C)c(=O)c(=O)n3C)cc1Cl`, the Potency is reported as “inactive”. In the case of `Cc1cccc(C(=O)Nc2sc3c(c2C(=O)O)CCCC3)c1`, the Potency is reported as active: 12.6 µM. In the case of `Cc1nn2c(=O)cc(COC(=O)c3ccc(NC(=O)c4ccc(C(C)(C)C)cc4)cc3)nc2s1`, the Potency is reported as inconclusive: 6.31 µM [cytotoxic, partial curve]. For `Cc1csc2nc(-c3cccc(NC(=O)c4ccccc4F)c3)cn12`, the Potency was active: 6.31 µM. For `COc1cc(-c2nc3cnccn3c2Nc2ccc(C(C)C)cc2)ccc1O`, the Potency was inconclusive: 31.6 µM [cytotoxic, single point]. In the case of `Cc1ccc(-n2ncc3c(N4CCN(C)CC4)ncnc32)cc1`, the Potency is reported as inconclusive: 25.1 µM [cytotoxic, partial curve]. In the case of `COc1cc(OC)cc(C(=O)NCc2ccc3c(c2)CCN3C(=O)c2ccccc2)c1`, the Potency is reported as “inactive”. In the case of `O=C(N/N=C/c1c[nH]c2ccccc12)c1cc(-c2ccc3ccccc3c2)n[nH]1`, the Potency is reported as active: 15.8 µM. For `CC(=O)N1CCCc2cc(S(=O)(=O)NCc3ccc(N(C)C)cc3)ccc21`, the activity change, negative = cell killing was inconclusive: -32.1% [cytotoxic]. For `CCn1c2ccccc2c2nc3cc(S(=O)(=O)N4CCOCC4)ccc3nc21`, the Potency was “inactive”. With `CCOc1ccc(NC(=O)CSc2nc3nc(C)c(Cc4ccccc4)c(C)n3n2)cc1` the Potency was inconclusive: 15.8 µM [cytotoxic, partial curve, poor fit]. For `CCC(CC)C(=O)NCCc1cc2cc(C)c(C)cc2[nH]c1=O`, the Potency was inconclusive: 15.8 µM [cytotoxic, single point]. With `O=C(COc1ccccc1F)NC1CC(=O)N(c2ccc3c(c2)OCCO3)C1` (centres undefined) the Potency was “inactive”. With `N#Cc1cccc(-c2nc(Nc3ccncc3)c3ccccc3n2)c1` the Potency was “inactive”. For `CCC1CCCCN1CCCNC(=O)c1cc2c(Cl)nc3ccc(C)cc3c2s1` (centres undefined), the Potency was active: 12.6 µM. For `Cc1c2cnn(CC(=O)NCCc3ccccc3)c(=O)c2c(C)n1Cc1ccccc1Cl`, the Potency was inconclusive: 10 µM [cytotoxic, partial curve, poor fit]. In the case of `CCC1CCCCN1CCCNC(=O)c1ccc2c(c1)N(Cc1cccc(C)c1)C(=O)c1ccccc1S2(=O)=O` (centres undefined), the Potency is reported as inconclusive: 20 µM [cytotoxic, single point]. In the case of `Cc1nnc(N2CCN(c3ccccc3)CC2)c2c1nnn2Cc1ccc(F)cc1`, the activity change, negative = cell killing is reported as inconclusive: -31.3% [cytotoxic]. With `CN1CCN(c2nc(-c3ccc(N(C)C)cc3)nc3ccccc23)CC1` the Potency was inconclusive: 20 µM [cytotoxic, single point]. With `CCN1CCN(/C=N/c2nc3c(s2)CCCC3)CC1` the Potency was inconclusive: 12.6 µM [cytotoxic, single point]. In the case of `Cc1ccnc(N/N=C/c2ccccc2)n1`, the Potency is reported as inconclusive: 22.4 µM [cytotoxic, single point]. In the case of `CCCC(=O)Nc1ccc2nn(-c3ccc(CC)cc3)nc2c1`, the Potency is reported as active: 10 µM. In the case of `CCCCOC(=O)c1ccc(NC(=O)c2ccc3c(c2)CCN3S(=O)(=O)c2ccccc2)cc1`, the Potency is reported as inconclusive: 31.6 µM [cytotoxic, single point]. In the case of `O=C(c1cnc(N2CCOCC2)c2ccccc12)N1CCN(c2ccc(F)cc2)CC1`, the Potency is reported as inconclusive: 0.0501 µM [cytotoxic, full curve]. In the case of `CO[C@@H]1COC(=O)CCC[C@@H](C)[C@H](OC)COC(=O)[C@H](Cc2ccccc2)NC(=O)C/C=C\[C@H]1C`, the activity change, negative = cell killing is reported as inactive: -5.17% [at 9.22 µM]. With `O=C(Cn1ncc2c3ccccc3n(Cc3ccccc3F)c2c1=O)NC1CCCCCC1` the Potency was active: 7.94 µM. With `COCCCNC(=O)c1ccc(N(C)S(C)(=O)=O)cc1` the Potency was “inactive”. For `O=S(=O)(c1ccc2c(c1)OCCO2)N1CCN(Cc2ccc3c(c2)OCO3)CC1`, the Potency was “inactive”. In the case of `CCCN1C(=O)c2[nH]nc(-c3ccccc3O)c2C1c1cccc(OCc2ccccc2)c1` (centres undefined), the Potency is reported as inconclusive: 31.6 µM [cytotoxic, single point]. For `COc1ccc(C(=O)N2CCC3(CC2)CN(c2ccc(-c4ccccc4)cc2)C3)cc1`, the Potency was inconclusive: 12.6 µM [cytotoxic, single point]. For `CCCCC(=O)Nc1nn(C)c2nc3c(C)cccc3cc12`, the Potency was “inactive”. In the case of `CCCn1cnc2cc(NCc3ccccn3)ccc21`, the Potency is reported as inconclusive: 20 µM [cytotoxic, partial curve]. For `COc1ccccc1Cn1cc(C(=O)c2ccc(Cl)cc2)c(=O)c2cc3c(cc21)OCCO3`, the Potency was inconclusive: 10 µM [cytotoxic, single point]. For `CC(=O)c1cccc(NC(=O)c2cc(-c3ccc(C)cc3)on2)c1`, the Potency was “inactive”. For `CC(C)(C)c1ccc(C(=O)NCC(c2cccs2)S(=O)(=O)c2ccc(F)cc2)cc1` (centres undefined), the Potency was inconclusive: 22.4 µM [cytotoxic, single point]. With `CCSc1ccccc1C(=O)Nc1cccnc1` the Potency was “inactive”. In the case of `O=C(COc1cccc2cccnc12)Nc1nccs1`, the Potency is reported as inconclusive: 10 µM [cytotoxic, partial curve]. In the case of `COc1cccc(NC(=O)CSc2nnc(-c3cc(C)n(-c4ccccc4)c3C)o2)c1`, the Potency is reported as active: 20 µM. In the case of `COc1ccc(-c2cc(C(=O)OCC(=O)Nc3ccc4c(c3)OCO4)c3ccccc3n2)cc1`, the Potency is reported as inconclusive: 14.1 µM [cytotoxic, partial curve]. For `COc1ccc(-n2c(C)nc3cc(C(=O)NCc4ccco4)ccc32)cc1`, the Potency was “inactive”. For `O=C(c1ccco1)N1CCN(c2c(-c3ccccc3)c3cc(Cl)ccc3[nH]c2=O)CC1`, the Potency was inconclusive: 31.6 µM [cytotoxic, single point]. For `O=C(CCCN1CCOCC1)c1ccc2c(c1)OCCO2`, the Potency was inconclusive: 7.94 µM [cytotoxic, partial curve]. With `Cc1cccc(C(=O)Nc2ccc(-c3nc4cc(C(C)C)ccc4o3)cc2)c1` the Potency was inconclusive: 20 µM [cytotoxic, partial curve]. With `Cc1ccc(O)c(NC(=O)c2noc3c2CCCCC3)c1` the Potency was inconclusive: 10 µM [cytotoxic, partial curve]. With `COc1ccc(-c2oc3ncnc(NCCCN4CCOCC4)c3c2-c2ccc(OC)cc2)cc1` the Potency was inconclusive: 15.8 µM [cytotoxic, single point]. With `O=C(CCc1nnc2n(Cc3ccccc3Cl)c(=O)c3ccccc3n12)Nc1ccc(F)c(F)c1` the Potency was inconclusive: 1.26 µM [cytotoxic, partial curve, poor fit]. With `Cc1occc1-c1nnc(SCC(=O)Nc2ccccc2N2CCCCC2)n1C` the Potency was inconclusive: 25.1 µM [cytotoxic, single point]. In the case of `CCc1sc(Nc2ccc(C)cc2Br)nc1-c1cc2cccc(OC)c2oc1=O`, the Potency is reported as inconclusive: 25.1 µM [cytotoxic, single point]. In the case of `CCOC(=O)CSc1nc2c(sc3ccccc32)c(=O)n1Cc1ccc(C)cc1`, the Potency is reported as inconclusive: 12.6 µM [cytotoxic, partial curve]. With `c1ccc2cc(OCc3nc4ccccc4[nH]3)ccc2c1` the Potency was active: 12.6 µM. With `C[C@@H]1CCC2[C@@H](C)[C@@H](O)O[C@@H]3O[C@@]4(C)CC[C@@H]1[C@@]23OO4` (some centres undefined) the Potency was inconclusive: 25.1 µM [cytotoxic, single point]. In the case of `COc1cccc(-c2nccc(NCc3ccccc3)n2)c1`, the Potency is reported as active: 12.6 µM. With `COC(=O)[C@@]1(Cc2ccc(OC)cc2)[C@H]2c3cc(C(=O)N(C)C)n(CCN4CNCC4=O)c3C[C@H]2CN1C(=O)c1ccccc1` the Potency was “inactive”. In the case of `CCOC(=O)N1CCc2c(sc3c2c(=O)n(CCc2ccccc2)c(=O)n3CC(=O)Nc2ccccc2C)C1`, the Potency is reported as “inactive”. For `CCCN1CCN(CCCNC(=O)c2cc3c(s2)-c2c(C)cccc2OC3)CC1`, the Potency was active: 10 µM. With `COc1ccc(OC(=O)c2cn(-c3cccc(OC)c3)c(=O)c3ccccc23)cc1` the Potency was inconclusive: 0.0316 µM [cytotoxic, full curve, poor fit].
